# From PubChem BioAssay AID488969 (Vanderbilt High Throughput Screening Facility, 2010)
# In all, about 110,000 compounds were measured (“z-score”: median about -0.1, highest 2% from about 2 on). Some of the results follow. The source made the active and inactive calls.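 How the source made its calls: active means z-score in the third read window above 3 or below -3; inactive means the rest.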
# Molecular target: Metabotropic glutamate receptor 8 (Rattus norvegicus) (UniProt P70579)
# Test: mGluR8 Gi/Go-coupled signaling modulation – cell-based, rat, thallium flux, HTS, primary screen (AID 488969)
# Settings: HEK293 rat mGluR8, GIRK (G protein-gated inwardly rectifying potassium channel) thallium flux, FluoZin2; at 10 µM; stronger effect = higher value
# UniProt P70579, sequence (P70579 whole entry, looked up): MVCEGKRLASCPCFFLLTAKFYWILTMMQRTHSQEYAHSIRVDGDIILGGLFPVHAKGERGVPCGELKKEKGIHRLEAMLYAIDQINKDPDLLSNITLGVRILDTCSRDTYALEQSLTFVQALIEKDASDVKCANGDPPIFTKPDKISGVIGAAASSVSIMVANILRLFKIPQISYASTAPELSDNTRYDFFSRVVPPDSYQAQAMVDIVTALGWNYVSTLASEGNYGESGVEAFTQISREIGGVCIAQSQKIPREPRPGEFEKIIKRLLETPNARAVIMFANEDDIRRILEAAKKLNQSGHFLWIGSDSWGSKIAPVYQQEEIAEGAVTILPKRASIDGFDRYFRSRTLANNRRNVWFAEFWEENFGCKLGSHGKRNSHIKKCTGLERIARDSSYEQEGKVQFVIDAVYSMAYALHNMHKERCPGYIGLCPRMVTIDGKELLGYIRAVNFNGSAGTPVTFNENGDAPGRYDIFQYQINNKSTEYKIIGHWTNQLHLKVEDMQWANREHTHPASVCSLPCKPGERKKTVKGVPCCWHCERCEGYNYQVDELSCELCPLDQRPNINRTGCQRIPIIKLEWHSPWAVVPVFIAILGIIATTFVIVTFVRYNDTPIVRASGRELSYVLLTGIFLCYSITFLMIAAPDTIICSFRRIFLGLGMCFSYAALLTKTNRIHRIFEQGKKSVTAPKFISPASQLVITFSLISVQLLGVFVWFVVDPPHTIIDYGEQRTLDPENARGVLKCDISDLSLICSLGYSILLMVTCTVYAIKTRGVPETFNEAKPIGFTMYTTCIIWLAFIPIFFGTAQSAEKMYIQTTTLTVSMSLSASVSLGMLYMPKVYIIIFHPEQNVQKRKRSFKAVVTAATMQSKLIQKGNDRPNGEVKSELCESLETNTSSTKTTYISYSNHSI
row,SMILES,z-score
1,CCOC(=O)C1C(=O)NC23CCCC2C1c1ccccc1O3 (stereo not given),-1.02
2,COC(=O)C[C@]1(C(=O)OC)CN(C#N)N(c2ccc(Cl)cc2)C12c1ccccc1-c1ccccc12,-0.826
3,Cc1nn(-c2ccccc2)c2c1C(c1ccc3c(c1)OCO3)SCC(=O)N2 (stereo not given),-0.525
4,S=C(c1ccc(Cl)cc1)N1CCOCC1,-0.144
5,CCC[N+]12CCC(CC1)C(=C(c1ccccc1)c1ccccc1)C2,-0.189
6,O=C(C1c2ccccc2C(=O)N2CCc3ccccc3C12)N1CCC2(CC1)OCCO2 (stereo not given),-0.142
7,Cc1ccc(-n2c(-c3ccc([N+](=O)[O-])cc3)nc3ccccc3c2=O)cc1,-0.412
8,CN1CCN(c2ccc([N+](=O)[O-])c(N)c2)CC1,0.0155
9,CCCC(=O)NC(Oc1ccccc1Cl)C(Cl)(Cl)Cl (stereo not given),-0.34
10,CCCCn1c(O)c(C(C)=NCCCN(C)C)c(=O)[nH]c1=O,0.319
11,COC(=O)N(c1ccc(OC)cc1)P1(=S)OCCC(C)O1 (stereo not given),-0.203
12,CCC(=NCCc1c[nH]c2ccccc12)c1c(O)n(C)c(=O)n(C)c1=O,-0.466
13,CCCc1nc2ccccc2c(=O)n1-c1ccccc1OC,-0.658
14,COc1ccc(-c2cc(C(F)(F)F)n3nc(C(=O)N4CCC5(CC4)OCCO5)cc3n2)cc1OC,-0.318
15,CC1CC(NC(=O)C2C3CCC(O3)C2C(=O)O)CC(C)(C)C1 (stereo not given),0.764
16,Cc1ccc(OCC(=O)NCCN2CCN(C(=O)COc3ccc(C)cc3)CC2)cc1,0.02
17,CCc1ccc(N2C(=O)NC(=O)/C(=C/c3cccn3CCOc3ccc(C)cc3)C2=O)cc1,-0.287
18,O=C(c1cccn2c(=O)c3ccc(Cl)cc3nc12)N1CCC2(CC1)OCCO2,-0.0942
19,OC(CNC1CCCCC1)c1ccccc1 (stereo not given),0.303
20,CC12CN3CN(C1)CC(C)(C3)C2=NO,-0.219
21,O=C1/C(=C\c2cc3c(cc2Cl)OCO3)N2CCC1CC2,-0.362
22,CSc1ccc(CNC2CN3CCC2CC3)cc1 (stereo not given),1.16
23,Oc1cccc(/C=N/NP(=S)(c2ccccc2)c2ccccc2)c1,-0.0771

row,SMILES,z-score
1,COc1ccc(-c2csc(NC(=O)COC(=O)Cc3ccccc3)n2)cc1OC,-0.152
2,N=C1C(c2ccccc2)=C(O)CN1Cc1ccco1,-0.712
3,COc1ccc(C(C)=O)cc1CC(C(=O)c1ccc(C)cc1)N(C)C (stereo not given),-0.459
4,CC(=O)OC1N=C(c2ccccc2)c2cc(Br)ccc2NC1=O (stereo not given),-0.0814
5,COc1cccc(N2C(=O)NC(=O)/C(=C/c3ccc4c5c(cccc35)CC4)C2=O)c1,-0.126
6,Cc1ccc(NC(=O)CSc2nnc([C@@H](N)Cc3c[nH]c4ccccc34)o2)c(C)c1,-0.219
7,O=C(CCn1c(=O)oc2ccccc21)N1CCC2(CC1)OCCO2,0.458
8,CC(C)(C)c1ccc(O)c(CN2CCN(c3ccccc3)CC2)c1,-0.143
9,CCn1c(O)c(C=Nc2ccc(S(N)(=O)=O)cc2)c(=O)n(CC)c1=S,0.323
10,CNC(C(=O)c1ccccc1)C(OC(C)C)c1ccc(Cl)cc1 (stereo not given),0.281
11,Cc1ccc(N(C)C(=O)Oc2cccc3ccc(C)nc23)cc1,0.0954
12,O=C1NC(=O)C(=Cc2cn(CCOc3ccc4c(c3)OCO4)c3ccccc23)C(=O)N1,-0.212
13,C/C(=C\c1ccc(N(C)C)cc1)[N+](=O)[O-],-0.153
14,Oc1ccc(CC2CC3CCN2CC3)cc1O (stereo not given),0.716
15,Cc1ccc(C)c(C2(O)CC(C)N(C)CC2C)c1 (stereo not given),0.0958
16,CC1CN=C(Nc2ccc(N(C)C)cc2)S1 (stereo not given),0.0819
17,CN(C)CC#CCC(O)(c1ccccc1)C1CCCC1 (stereo not given),-0.183
18,CCN(CC)c1ccc(/C=C2/C(=O)NC(=O)N(CC3CCCO3)C2=O)cc1 (stereo not given),0.01
19,CN(C)CC1CSCCC1(O)c1ccccc1 (stereo not given),0.409
20,CC1(C)C(C(=O)NN2C(=O)c3ccccc3C2=O)C1(C)C,-0.351
21,C=C1N2CCC(CC2)C1(O)c1ccc(C)cc1 (stereo not given),-0.123
22,O=C(c1ccco1)C12CN3CN(CN(C3)C1)C2,-1.11
23,Cc1nn(C)c(C)c1P(=S)(c1c(C)nn(C)c1C)N(C)C,1.1

row,SMILES,z-score
1,CC1(C)C2([N+](=O)[O-])CNCC1([N+](=O)[O-])CNC2,-0.698
2,CN(CCCCC(=O)/C=N/O)Cc1ccccc1 (tested in a mixture with another compound),-0.317
3,Cc1ccc(-c2nc(N(C)C3CCN(C)CC3)c3ccccc3n2)cc1,2.91
4,CC(Cc1ccccc1)[n+]1cc(/N=C(\[O-])N(C)C)on1 (stereo not given),0.239
5,CC(=O)O[C@]1(c2ccccc2)CCN(C)[C@H]2CCCC[C@@H]21,0.237
6,CN(C)C1(c2nnnn2CCOC(=O)Nc2ccc(Cl)cc2)CCCCC1,-0.443
7,Cc1ccc2c(c1)CC1(CN2C)C(=O)NC(=O)N(CCC2=CCCCC2)C1=O (stereo not given),0.712
8,CCCCC(=O)N/N=C/c1c(O)n(C2CC2)c(=S)[nH]c1=O,0.0285
9,CCN1CC=C(c2c[nH]c3ccccc23)CC1,2.05
10,Cc1c(/C=C2/CC3C4CC=C5CC(O)CCC5(C)C4CCC3(C)C2=O)cnn1C (stereo not given),1.02
11,COc1ccccc1N1CCN(Cc2ccc(Cl)cc2Cl)CC1,-0.166
12,c1cncc(CNC2=NCCCCC2)c1,-0.113
13,FC(F)(F)c1cccc(-n2nnnc2C2(N3CCOCC3)CCCCC2)c1,-0.203
14,O=C(O)C(Cc1cnc[nH]1)NS(=O)(=O)c1ccc(Cl)cc1 (stereo not given),0.184
15,CC12CN3CC(C)(CN(C1)C3c1cccs1)C2O (stereo not given),0.438
16,O=C1NC(=O)C2(Cc3ccccc3N3CCCC32)C(=O)N1 (stereo not given),-0.0197
17,ClCCNc1nc2ccc(Cl)cc2[nH]1,-0.215
18,CN1CCN(CCC(=O)OC2CC3CCC(C2)N3C)CC1 (stereo not given),-0.106
19,CC(C)C(=O)c1cn(Cc2ccc(C#N)cc2)c2ccccc12,-0.425
20,CC1(C)CC(n2[nH]c(=O)c3c2NC(=O)CSC3c2ccccc2)CCO1 (stereo not given),0.841
21,CCCCCCn1c(N)c(C(=O)NCCN2CCOCC2)c2nc3ccccc3nc21,-0.204
22,Cc1cc(N2C(=O)CC(N3CCC(n4c(=O)[nH]c5ccccc54)CC3)C2=O)no1 (stereo not given),-0.309
23,O[C@@H]1CCCC[C@H]1N1CCC(c2ccccc2)CC1,0.16

row,SMILES,z-score
1,O=Cc1cn(Cc2ccccc2[N+](=O)[O-])c2ccccc12,0.376
2,Clc1ccc(C2NCCc3[nH]cnc32)cc1 (stereo not given),0.398
3,O=C(COc1ccccc1)N1CCN(C/C=C/c2ccccc2)CC1,0.702
4,CCC(=NCC1CCCO1)c1c(O)[nH]c(=O)[nH]c1=O (stereo not given),-0.927
5,Cc1cc(NCCN)nc2ccccc12,-0.142
6,CC(=O)OC1(Cc2ccccc2)CN2CCC1c1ccccc12 (stereo not given),-0.106
7,CC(=O)Nc1ccc(OC(=O)c2ccccc2N)cc1,0.06
8,Cc1cc(C)nc(NC2=NCCS2)n1,0.179
9,O=C(c1ccccc1)c1cn(CC(=O)N2CCOCC2)c2ccccc12,0.111
10,CC(C)n1c(=O)c(C=Nc2ccc(Cl)cc2)c(O)n(Cc2ccco2)c1=O,-0.0221
11,C/C(=N\N1CCN(C)CC1)c1c(O)n(Cc2ccccc2)c(=O)[nH]c1=O,-0.292
12,COc1cccc(CCNCc2ccc(SC)cc2)c1,0.839
13,Cc1c(N=Nc2c(O)[nH]c(=S)[nH]c2=O)c(=O)n(-c2ccccc2)n1C,-0.268
14,CC(C)N1C(=O)/C(=C/C=C/c2ccco2)C(=O)N(Cc2ccco2)C1=O,active: 6.08
15,O=C(c1ccccc1F)c1cn(CC(=O)N2CCCCC2)c2ccccc12,-0.152
16,OC(c1ccccc1)(c1ccccc1)c1ccncc1,-0.0666
17,Cc1[nH]c2ccccc2c1C1=CCNCC1,0.222
18,Nc1cc(N2CCNCC2)ccc1[N+](=O)[O-],-0.0892
19,CC(=O)c1cccc(NC2=NCC(C)S2)c1 (stereo not given),-0.0888
20,CN1CC(C(=O)c2ccccc2)C(C(=O)c2ccccc2)C1 (stereo not given),0.0253
21,O=c1c2ccccc2nc(CSc2ncnc3nc[nH]c23)n1-c1ccccc1Cl,-0.292
22,Cc1ccccc1N1C(=O)NC(=O)/C(=C\c2ccc3c(c2)CCCN3Cc2ccccc2)C1=O,-0.379
23,O=C(c1cc(Br)ccc1Cl)N1CCC2(CC1)OCCO2,0.206

row,SMILES,z-score
1,CCCCSC1=NN1c1nc(N)nc(C)c1CC,-0.166
2,Cc1cc(OCCCC(=O)NCc2cccs2)ccc1Cl,-0.105
3,O=[N+]([O-])c1ccc(C2C3C(c4ccccc4)=NC4(CCCCC4)N32)cc1 (stereo not given),-0.181
4,COc1cc(/C=C2\C(=O)NC(=O)N(c3ccccc3)C2=O)cc(OC)c1O,-0.0827
5,COc1ccc(C2SCC(=O)Nc3c2c(C)nn3-c2ccccc2)cc1 (stereo not given),-0.461
6,Cc1cccc(N2C(=O)NC(=O)/C(=C\c3cnc(-c4ccccc4)nc3)C2=O)c1,-0.271
7,O=C(Nc1ccc(Cl)cc1C(=O)c1ccccc1)c1ccc(Br)o1,-0.138
8,CSc1nnc([C@@H](N)Cc2ccccc2)o1,0.641
9,CCCN1CCC2(CC1)NC(CO)(CO)CO2,-0.585
10,O=C1/C(=C\c2cc3c(cc2Br)OCO3)N2CCC1CC2,-0.259
11,CCCCn1c(C)c(C(=O)O)c2cc(OC)ccc21,-0.364
12,Cc1ccc2cccc(OC(=O)N3CCCC3)c2n1,-0.0301
13,c1ccc2cc(CC3=NCCN3)ccc2c1,0.294
14,CCOC(=O)N(C)c1ccc(C(O)(C(=O)OCC)C(F)(F)F)cc1 (stereo not given),-0.0433
15,CCOC(=O)CCN=Cc1c(O)n(-c2ccc(Br)cc2)c(=O)[nH]c1=O,0.768
16,N[C@@H](Cc1c[nH]c2ccccc12)c1nnc(SCc2ccc(Cl)cc2)o1,0.554
17,O=C(CN1CC=C(c2ccccc2)CC1)Nc1cc(Cl)ccc1Cl,-0.572
18,CC/C(=N\N1CCCCCC1)c1c(O)n(-c2ccc(C)cc2)c(=O)[nH]c1=O,-0.318
19,CCN(CC)C(=O)c1ccc(NC(=O)c2cccc(F)c2)cc1,-0.198
20,O=c1[nH]c(=O)n(-c2ccc(Cl)cc2)c(O)c1C=Nc1ccc(S(=O)(=O)Nc2nccs2)cc1,-0.22
21,Nc1c2c(nc3sc4c(c13)CCCC4)CCCCC2,-0.108
22,O=C(O)C(O)(c1ccccc1)C1CCCC1 (stereo not given),-0.182
23,Cc1c(N=Cc2c(O)n(CCc3ccccc3)c(=O)[nH]c2=O)c(=O)n(-c2ccccc2)n1C,-0.672
